# Measurements from PubChem BioAssay AID686979 (National Center for Advancing Translational Sciences (NCATS), 2013).
# Among all 420,000 compounds or so, about 50,000 (12%) were called active. Inconclusive results, whose numbers are uncertain, are shown with a selection of clear calls. Calls come from the whole dose curve; as a rule, active = well fitted inhibition curve with a large enough effect; inconclusive = small, poorly fitted or top-dose-only effect; inactive = flat fitted curve, though single readings scatter. No potency is given beside an inconclusive call; the fits are too rough.
# Experiment: qHTS for Inhibitors of human tyrosyl-DNA phosphodiesterase 1 (TDP1): qHTS in cells in presence of CPT; note: nearly all actives have a fitted effect of over 55% in size
# Conditions: chicken DT40 Tdp1-/-;hTDP1 cells + 20 nM CPT, ATP luminescence, 48 h; activity change, negative = growth inhibition: at 46.2 µM (top of the series)
# Procedure, shortened: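 Chicken DT40 Tdp1-/- cells stably complemented with human TDP1 were seeded at 400 cells/well in medium containing 20 nM camptothecin, exposed to pin-transferred compounds, and grown at 37 °C for at least 48 hr. Viability was read as ATP luminescence.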
# % is set by controls: 0 for no effect and ±100 for the full control effect; potency is the fitted concentration of half-maximal effect; tags give direction and shape of the fitted curve.
SMILES,Potency,"activity change, negative = growth inhibition"
Cc1cccc(N2CCN(C(=O)c3cccc(N4C(=O)C5C6C=CC(C6)C5C4=O)c3)CC2)c1C (configuration not stated),"inconclusive [inhibitor, single point]",–
CC(=O)c1cc(-c2ccccc2)[nH]c1N1CCCC1,active: 16.4 µM,–
O=C(NC(=S)N(CCO)Cc1ccccc1)c1cc(Br)ccc1Cl,–,inconclusive: -33.1% [inhibitor]
Cc1ccc(CCNC(=O)c2ccc(NC(=O)N3CCSc4ccccc43)cc2)cc1,"inconclusive [inhibitor, single point]",–
CCNC(=O)CC1C(=O)N(c2ccc(F)cc2)C(=O)N1Cc1ccccn1 (configuration not stated),"inconclusive [inhibitor, single point]",–
O=C(COc1ccccc1F)Nc1nnc(C2CCCC2)s1,–,inactive: 11.6%
O=C(O)C1C(c2ccccc2)C(C(=O)Oc2ccccc2)C1c1ccccc1 (configuration not stated),–,inactive: 12.4%
Cc1nc2cc(-c3cccc(F)c3)nn2c(C)c1CCC(=O)NC(C)CCc1ccco1 (configuration not stated),"inconclusive [inhibitor, single point]",–
Brc1ccc(-c2cnc(-c3cccs3)o2)cc1,–,inactive: 5.47%
COc1ccccc1OCCn1cc(C#N)c2ccccc21,"inconclusive [inhibitor, single point]",–
O=C(COc1cccc2ccccc12)NCc1cccnc1,–,inactive: 12.1%
CCCCc1c(-c2cccc(Br)c2)ncn1CCc1ccccc1OC,active: 5.8 µM,–
COCC(=O)N1c2nc(-c3ccco3)nn2C2(CCCCC2)[C@@H]2CCCC[C@@H]21,"inconclusive [inhibitor, single point]",–
Cc1ccc(C(=O)N(C)CC(=O)Nc2cccc(F)c2)cc1S(=O)(=O)N1CCCCC1,"inconclusive [inhibitor, single point]",–
CC1(C(=O)NCc2cccs2)Cc2c(-c3ccc(C(N)=O)cc3)ccnc2O1 (configuration not stated),active: 2.59 µM,–
COc1ccc(OCCCON2C(=O)c3ccccc3C2=O)cc1,–,inactive: 4.54%
O=C1NC(=Nc2ccc(F)cc2)SC1Cc1ccc(F)cc1 (configuration not stated),"inconclusive [inhibitor, partial curve, poor fit]",–
CCCN(C(=O)c1cc2c(=O)oc3ccccc3c2s1)c1ccccc1C,active: 18.4 µM,–
O=C1N(CCCCN2C(=O)C3(OCCO3)c3ccccc32)c2ccccc2C12OCCO2,"inconclusive [inhibitor, single point]",–
CCC(C)NC(=O)Cn1c(=O)ccc2cc(S(=O)(=O)N3CCCC3)ccc21 (configuration not stated),"inconclusive [inhibitor, partial curve]",–
O=C(C1CCCO1)N1CCN(C(=S)Nc2cccc(F)c2)CC1 (configuration not stated),–,inactive: 1.17%
Cc1ccc(NCC(=O)Nc2cccc(F)c2)cc1S(=O)(=O)N1CCCCCC1,"inconclusive [inhibitor, single point]",–
CCCC(=O)Nc1ccc(C(=O)/C=C/c2ccc(SC)cc2)cc1,active: 13 µM,–
O=S1(=O)CCO[C@H]2CCCC[C@@H]2N1Cc1ccccc1F,"inconclusive [inhibitor, single point]",–

SMILES,Potency,"activity change, negative = growth inhibition"
CCCc1cc(=O)[nH]c(SCC(=O)NC2(C#N)CCCCC2)n1,–,inactive: -2.86%
Cc1cccc(Nc2ccccc2)c1,"inconclusive [inhibitor, single point]",–
CCC(=O)N(CCc1ccccc1C)Cc1cc2ccc(C)cc2[nH]c1=O,–,inactive: -5.41%
Cc1cccn2c(=O)c3cc(S(=O)(=O)c4ccccc4)c(=N)n(Cc4ccco4)c3nc12,–,inactive: -0.0801%
Cc1cccc(Oc2ccc(S(=O)(=O)N3CCCCC3)cc2N)c1,"inconclusive [inhibitor, single point]",–
CCOc1ccc(CSC2=NCCN2)cc1Cl,"inconclusive [inhibitor, single point]",–
N#Cc1ccsc1NC(=O)CCS(=O)(=O)c1ccccc1,"inconclusive [inhibitor, single point]",–
CCOc1cc(CNC(=O)c2ccc3nc(CCc4ccccc4)oc3c2)ccc1OC,–,inactive: -29.6%
COc1ccc(CNC(=O)C/C(C)=N/NC(=O)c2ccc(OC)cc2OC)cc1,–,inactive: 3.07%
CCNCCC(=O)N1c2ccccc2Sc2ccc(C(F)(F)F)cc21,"inconclusive [inhibitor, partial curve, poor fit]",–
Cc1ccc(CNC(=O)C(C)n2ccc3cc(S(=O)(=O)N4CCCC4)ccc32)cc1 (configuration not stated),"inconclusive [inhibitor, full curve, poor fit]",–
CCN(CC)S(=O)(=O)c1ccc(N2CCOCC2)c(NC(=O)c2sccc2C)c1,"inconclusive [inhibitor, single point]",–
COc1ccc(/C=C2/CCc3ccccc3C2=O)cc1OC,"inconclusive [inhibitor, single point]",–
O=S(=O)(c1cccs1)N1CCN(CC(O)COc2cc(Cl)ccc2Cl)CC1 (configuration not stated),"inconclusive [inhibitor, single point]",–
CCOC(=O)C1CCN(C(=O)COc2ccc(S(=O)(=O)NC(C)(C)C)cc2)CC1,–,inactive: -14.4%
CN(C)c1cc(N2CCOCC2)nc(C#N)n1,"inconclusive [inhibitor, partial curve]",–
CCN1CCN(Cc2nc3c(c(=O)[nH]c(=O)n3C)n2Cc2ccccc2Cl)CC1,–,inactive: -9.66%
CCCCC(=O)Nc1ccc(NC(=S)NC(=O)CC(C)C)cc1OC,"inconclusive [inhibitor, single point]",–
Cc1cccc(OCCC(=O)Nc2c(C)n(C)n(-c3ccccc3)c2=O)c1,–,inactive: -4.18%
Cc1cccc(-c2oc3ccc(-c4ccc5c(c4)OCO5)cc3c2C#Cc2cncn2C)c1,"inconclusive [inhibitor, single point]",–
CCOC(=O)N1CCN(Cc2nc(-c3ccc(OC)cc3)no2)CC1,"inconclusive [inhibitor, single point]",–
Cc1cc(N2CCN(c3ccc(C(F)(F)F)cc3[N+](=O)[O-])CC2)c2ccccc2n1,"inconclusive [inhibitor, single point]",–
Clc1ccc(CSc2nnc(-c3ccccn3)n2Cc2ccco2)c(Cl)c1,"inconclusive [inhibitor, single point]",–
